# Out of some 310,000 compounds screened, about 14,000 (4.5%) showed an effect of 50% or more. The effect is printed as a negative number. This is one part of the list.
# Molecular target: human ether-à-go-go-related gene (hERG) potassium channel (human, UniProt Q12809)
# Assay: primary screen, population patch clamp on CHO cells stably expressing hERG
# 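Note: peak tail current of the secondary pulse compared with the same well before compound.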
# human ether-à-go-go-related gene (hERG) potassium channel, sequence (Q12809 whole entry, looked up): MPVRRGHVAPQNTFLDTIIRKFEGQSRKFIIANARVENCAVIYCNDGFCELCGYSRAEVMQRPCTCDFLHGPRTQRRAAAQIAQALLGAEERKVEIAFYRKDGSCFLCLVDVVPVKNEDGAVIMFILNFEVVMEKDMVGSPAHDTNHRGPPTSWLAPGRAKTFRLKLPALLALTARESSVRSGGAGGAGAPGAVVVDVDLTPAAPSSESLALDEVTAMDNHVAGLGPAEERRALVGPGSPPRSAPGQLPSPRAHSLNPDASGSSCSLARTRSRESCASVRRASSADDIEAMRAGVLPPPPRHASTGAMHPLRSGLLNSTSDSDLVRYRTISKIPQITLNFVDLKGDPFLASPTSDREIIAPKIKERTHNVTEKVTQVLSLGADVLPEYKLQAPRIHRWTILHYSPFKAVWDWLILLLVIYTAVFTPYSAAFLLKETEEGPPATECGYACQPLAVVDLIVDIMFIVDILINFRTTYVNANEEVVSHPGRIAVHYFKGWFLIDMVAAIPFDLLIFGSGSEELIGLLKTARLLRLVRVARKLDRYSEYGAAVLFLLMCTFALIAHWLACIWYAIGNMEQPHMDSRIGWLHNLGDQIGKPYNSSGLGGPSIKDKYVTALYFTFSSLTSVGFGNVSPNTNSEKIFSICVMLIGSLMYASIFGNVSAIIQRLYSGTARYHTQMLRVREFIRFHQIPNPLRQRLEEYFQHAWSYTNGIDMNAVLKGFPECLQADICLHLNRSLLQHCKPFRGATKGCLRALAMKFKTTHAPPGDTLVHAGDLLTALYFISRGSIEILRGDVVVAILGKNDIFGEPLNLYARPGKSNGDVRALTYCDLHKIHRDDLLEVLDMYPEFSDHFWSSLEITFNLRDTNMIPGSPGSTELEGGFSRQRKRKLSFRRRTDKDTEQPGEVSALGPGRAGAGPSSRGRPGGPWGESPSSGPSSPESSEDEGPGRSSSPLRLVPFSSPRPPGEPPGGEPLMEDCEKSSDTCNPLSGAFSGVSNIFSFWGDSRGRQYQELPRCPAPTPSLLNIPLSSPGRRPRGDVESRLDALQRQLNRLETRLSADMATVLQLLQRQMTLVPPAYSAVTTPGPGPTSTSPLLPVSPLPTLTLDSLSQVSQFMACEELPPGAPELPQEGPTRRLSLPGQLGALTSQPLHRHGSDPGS
row,SMILES,"hERG current change (%, negative = inhibition) at 10uM"
1,COc1ccc(OC)c(-c2csc(NC(=O)CSCC(=O)Nc3cc(C)on3)n2)c1,15%
2,CCn1c(SCc2c(Cl)cccc2Cl)nc2nc3c(cc2c1=O)CCCC3,-9.6%
3,Cc1ccc(S(=O)(=O)N(C)c2ccc(OC(=O)c3ccc(N4CCCC4=O)cc3)cc2)cc1,14.7%
4,CCN1CCN(Cc2cc3c(cc2[N+](=O)[O-])OCO3)CC1,7.4%
5,O=c1[nH]c(Cn2nnc(-c3ccccc3)n2)nc2scc(-c3ccccc3)c12,6.27%
6,CN1C(=O)C(=Cc2cn(CC#N)c3ccccc23)C(=O)N(C)C1=O,19.8%
7,Cc1ccn2cc(CCNC(=O)C3CCCCC3)nc2c1,-23.5%
8,CCOC(=O)CC(=O)c1cc(OC)c(OC)c(OC)c1,-3.44%
9,O=C(CCS(=O)(=O)c1cccc2nonc12)Nc1ccc(Br)cc1,7.91%
10,FC(F)(F)c1cc(-c2cccs2)nc2cc(-c3cccs3)nn12,14.5%
11,CCOC(=O)c1sc(NC(=O)c2ccc(=O)[nH]c2)nc1C,9.75%
12,CCN(c1ccccc1)S(=O)(=O)c1ccc(Cl)c(NC(=O)COC(=O)c2ccc(O)cc2)c1,6.44%
13,COc1ccc(-c2c(-c3ccc(OC)c(C)c3O)n[nH]c2C)cc1,21.1%
14,O=C1CSC(c2cccnc2)N1C1CCCCC1 (stereo not drawn),8.35%
15,CCN(CC)Cc1nc2c(c(=O)[nH]1)C(CC)(CC)Cc1ccccc1-2,-6.25%
16,COc1ccccc1-c1c(C)oc2cc(OC(=O)c3ccco3)ccc2c1=O,-0.156%
17,CCOC(=O)c1ccc(N=c2sc(C(=O)OC)cc(=O)n2Cc2ccco2)cc1,13.7%
18,O=C(COc1cccc2ccccc12)NNC(=O)C1CCCO1 (stereo not drawn),-0.0512%
19,CCOC(=O)c1cnc2ccc(OCC)cc2c1N1CCN(C)CC1.Cl,-47.8%
20,O=C(c1cc(COc2ccc(F)cc2Cl)on1)N1CCSCC1,-4.58%
21,Cc1ccc(C)c(N2CCN(S(=O)(=O)c3c(C)noc3C)CC2)c1,4.42%
22,Cc1csc(-c2cnn(-c3ccccc3)c2NC(=O)c2cccc(C(F)(F)F)c2)n1,9.98%
23,CC(=O)Oc1ccc2c(=O)c(-c3ccccc3)coc2c1,3.03%

row,SMILES,"hERG current change (%, negative = inhibition) at 10uM"
1,Cc1ccc2nc(SCC(=O)Nc3cc(C)on3)[nH]c2c1,-3.32%
2,CCO[C@@H]1OC(C(=O)NCc2ccccc2)=C[C@H](C2CC2)[C@H]1CCCO,-5.78%
3,NC(=O)c1cccc(-c2noc(-c3ccccc3F)n2)c1,6.07%
4,Cc1noc(C)c1-c1nnc(-c2ccc(OC(F)(F)F)cc2)o1,-10.7%
5,O=C(NC(=S)NCC1CCCO1)c1ccc(Br)o1 (stereo not drawn),2.62%
6,COc1ccc(-c2cc(C)no2)cc1S(=O)(=O)N(C)c1ccc(C)cc1,-29.6%
7,O=C(c1ccccc1)c1cc(F)c(N2CCOCC2)cc1Cl,-10.4%
8,COCCn1c(SCC(=O)N2CCCCCC2)nc2c(c1=O)SCC2,-19.9%
9,O=C(C1=C[C@H](c2ccc3c(c2)OCO3)C[C@H](OCc2ccc(CO)cc2)O1)N1CCN(Cc2ccc3c(c2)OCO3)CC1,-17.2%
10,Cc1ccccc1NS(=O)(=O)c1ccc(C(=O)N2CCCC2)cc1,12%
11,Clc1ccc(CSc2ncn(-c3ccccc3)n2)cc1,0.168%
12,C#CCSc1[nH]c(=O)cc(C)c1C#N,19.3%
13,COC(=O)c1ccc(NC(=O)c2cc[n+](Cc3ccccc3)cc2)cc1.[Cl-],19%
14,COC(=O)c1ccc(COn2c(=O)c(C)[n+]([O-])c3ccccc32)cc1,-3%
15,CCOc1ncccc1C(=O)Nc1ccc(Cl)cc1,-3.29%
16,COc1ccc(CCNC(=O)CSc2cn(Cc3cccc(C)c3)c3ccccc23)cc1OC,4.67%
17,COc1ccc(Nc2nc(-c3ccncc3)nc3ccccc23)cc1,13.1%
18,CC(NC(=S)Nc1c(Cl)cccc1OC(F)F)C(C)(C)C (stereo not drawn),-2.76%
19,COc1ccc(C(C)=O)cc1CN1C(=O)NC(c2ccccc2)(c2ccccc2)C1=O,0.9%
20,COc1nc(N)c(S(=O)(=O)c2ccccc2)cc1C#N,-19%
21,COc1ccc(/C=C/C(=O)N2CCN(c3ccccn3)CC2)cc1OC,-9.7%
22,C#CCNC(=O)C1=C[C@@H](c2ccc3c(c2)OCO3)C[C@@H](OCc2ccc(CO)cc2)O1,-11.2%

# Reference: paper PMC4336329 (PLoS ONE, 2015)
